{
  "source": "the supplement of paper PMC9938546",
  "note": "Structures can show the parent of a compound that is named as a salt. The list shows a part of the results. Most values come without repeats; read them as rough.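 Also: viability estimated indirectly by image-based GFP quantification with live-cell imaging of the constitutively GFP-expressing human colorectal cancer line, no immune cells added.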",
  "data": [
    {"test_system": "HCT116-GFP", "assay": "HCT116-GFP viability (GFP intensity) relative to untreated control, monoculture; higher = less cancer cell killing", "settings": "culture: HCT116-GFP monoculture; 10 µM; 72 h", "units": {"HCT116-GFP viability": "%"}, "values": [
      {"smiles": "CC(C)(O/N=C(\\C(=O)N[C@@H]1C(=O)N2C(C(=O)[O-])=C(C[n+]3ccccc3)CS[C@H]12)c1csc(N)n1)C(=O)O", "note": "[Ceftazidime pentahydrate]", "HCT116-GFP viability": 102},
      {"smiles": "Cc1ccc(/C(=C\\CN2CCCC2)c2ccccn2)cc1", "note": "[Triprolidine hydrochloride]", "HCT116-GFP viability": 93.2},
      {"smiles": "Cc1c(Cl)cccc1Nc1ncccc1C(=O)O", "note": "[Clonixin Lysinate]", "HCT116-GFP viability": 98.3},
      {"smiles": "O=C(N/N=C/c1ccc([N+](=O)[O-])o1)c1ccc(O)cc1", "note": "[Nifuroxazide]", "HCT116-GFP viability": 30.9},
      {"smiles": "CN1CCN(C(c2ccccc2)c2ccc(Cl)cc2)CC1", "note": "(centres undefined) [Chlorcyclizine hydrochloride]", "HCT116-GFP viability": 89.1},
      {"smiles": "CCc1cc(C(N)=S)ccn1", "note": "[Ethionamide]", "HCT116-GFP viability": 108},
      {"smiles": "CC(=O)Nc1c(I)c(NC(C)=O)c(I)c(C(=O)O)c1I", "note": "[Diatrizoic acid dihydrate]", "HCT116-GFP viability": 113},
      {"smiles": "CCC(=O)[C@@]1(C)[C@H](C)C[C@H]2[C@@H]3CCC4=CC(=O)C=C[C@]4(C)[C@H]3[C@@H](O)C[C@@]21C", "note": "[Rimexolone]", "HCT116-GFP viability": 27.1},
      {"smiles": "CN(N=O)C(=O)N[C@@H](C=O)[C@@H](O)[C@H](O)[C@H](O)CO", "note": "[Streptozotocin]", "HCT116-GFP viability": 103},
      {"smiles": "CCn1cc(C(=O)O)c(=O)c2cc(F)c(N3CCN(C)CC3)cc21", "note": "[Pefloxacine]", "HCT116-GFP viability": 105},
      {"smiles": "CC[C@]12CCCN3CCc4c(n(c5ccccc45)C(=O)C1)[C@@H]32", "note": "[Eburnamonine (-)]", "HCT116-GFP viability": 21.8},
      {"smiles": "C[C@@H]1CN(c2c(F)c(N)c3c(=O)c(C(=O)O)cn(C4CC4)c3c2F)C[C@H](C)N1", "note": "[Sparfloxacin]", "HCT116-GFP viability": 95.5},
      {"smiles": "C[C@]12C=CC(=O)C=C1CC[C@@H]1[C@@H]2C(=O)C[C@@]2(C)[C@H]1CC[C@]2(O)C(=O)CO", "note": "[Prednisone]", "HCT116-GFP viability": 99.1},
      {"smiles": "CCn1cc(C(=O)O)c(=O)c2cc(F)c(N3CCNC(C)C3)c(F)c21", "note": "(centres undefined) [Lomefloxacin hydrochloride]", "HCT116-GFP viability": 107},
      {"smiles": "CS(=O)(=O)Nc1ccc([N+](=O)[O-])cc1Oc1ccccc1", "note": "[Nimesulide]", "HCT116-GFP viability": 101},
      {"smiles": "COc1cc(C)nc(-n2nc(C)cc2OC)n1", "note": "[Epirizole]", "HCT116-GFP viability": 95.7},
      {"smiles": "CNC(=C[N+](=O)[O-])NCCSCc1csc(CN(C)C)n1", "note": "[Nizatidine]", "HCT116-GFP viability": 96.6},
      {"smiles": "CCn1cc(C(=O)O)c(=O)c2cnc(N3CCNCC3)nc21", "note": "[Pipemidic acid]", "HCT116-GFP viability": 104},
      {"smiles": "COc1cc2nc(N3CCN(C(=O)c4ccco4)CC3)nc(N)c2cc1OC", "note": "[Prazosin hydrochloride]", "HCT116-GFP viability": 25.5},
      {"smiles": "COc1nc(C)nc(Cl)c1NC1=NCCN1", "note": "[Moxonidine]", "HCT116-GFP viability": 106},
      {"smiles": "CC(=O)N[C@@H](CC(=O)N[C@@H](CCC(=O)O)C(=O)O)C(=O)O", "note": "[Spaglumic acid]", "HCT116-GFP viability": 102},
      {"smiles": "Cc1ccc(S(=O)(=O)NC(=O)NN2CC3CCCC3C2)cc1", "note": "(centres undefined) [Gliclazide]", "HCT116-GFP viability": 120},
      {"smiles": "C#CCN(C)Cc1ccccc1", "note": "[Pargyline hydrochloride]", "HCT116-GFP viability": 105},
      {"smiles": "CCn1cc(C(=O)O)c(=O)c2ccc(C)nc21", "note": "[Nalidixic acid sodium salt]", "HCT116-GFP viability": 99.3},
      {"smiles": "COc1ccc2cc(CCC(C)=O)ccc2c1", "note": "[Nabumetone]", "HCT116-GFP viability": 101},
      {"smiles": "O=C(CCCN1CC=C(n2c(=O)[nH]c3ccccc32)CC1)c1ccc(F)cc1", "note": "[Droperidol]", "HCT116-GFP viability": 91},
      {"smiles": "CCN(CC)CCNC(=O)c1cc(S(C)(=O)=O)ccc1OC", "note": "[Tiapride hydrochloride]", "HCT116-GFP viability": 87.4},
      {"smiles": "CN1C2CCCC1CC(NC(=O)c1nn(C)c3ccccc13)C2", "note": "(centres undefined) [Granisetron]", "HCT116-GFP viability": 91.5},
      {"smiles": "CC(C)N1CCN(c2ccc(OCC3COC(Cn4cncn4)(c4ccc(Cl)cc4Cl)O3)cc2)CC1", "note": "(centres undefined) [Terconazole]", "HCT116-GFP viability": 75.4},
      {"smiles": "CN(C)CCOC1=Cc2ccccc2Sc2ccc(Cl)cc21", "note": "[Zotepine]", "HCT116-GFP viability": 59.6},
      {"smiles": "CCN(Cc1ccncc1)C(=O)C(CO)c1ccccc1", "note": "(centres undefined) [Tropicamide]", "HCT116-GFP viability": 90.3},
      {"smiles": "O=C(NCCNCC(O)COc1ccc(O)cc1)N1CCOCC1", "note": "(centres undefined) [Xamoterol hemifumarate]", "HCT116-GFP viability": 90.4},
      {"smiles": "OC(CCN1CCCCC1)(c1ccccc1)C1CC2C=CC1C2", "note": "(centres undefined) [Biperiden hydrochloride]", "HCT116-GFP viability": 102},
      {"smiles": "Cc1ncc([N+](=O)[O-])n1CCO", "note": "[Metronidazole]", "HCT116-GFP viability": 107},
      {"smiles": "CCN(CC)CC#CCOC(=O)C(O)(c1ccccc1)C1CCCCC1", "note": "(centres undefined) [Oxybutynin chloride]", "HCT116-GFP viability": 106},
      {"smiles": "COc1ccc(C(=O)NCc2cccnc2)cc1C(=O)NCc1cccnc1", "note": "[Picotamide monohydrate]", "HCT116-GFP viability": 95.7},
      {"smiles": "COc1ccc2[nH]cc(CCNC(C)=O)c2c1", "note": "[Melatonin]", "HCT116-GFP viability": 101},
      {"smiles": "Cc1ccc(C(=O)c2cc(O)c(O)c([N+](=O)[O-])c2)cc1", "note": "[Tolcapone]", "HCT116-GFP viability": 91.7},
      {"smiles": "NC[C@H]1O[C@H](O[C@H]2[C@H](O[C@@H]3O[C@H](CO)[C@@H](O)[C@H]3O)[C@@H](O)[C@H](N)C[C@@H]2N)[C@H](N)[C@@H](O)[C@@H]1O", "note": "[Ribostamycin sulfate salt]", "HCT116-GFP viability": 110},
      {"smiles": "CN1CCCCC1CCN1c2ccccc2Sc2ccc([S+](C)[O-])cc21", "note": "(centres undefined) [Mesoridazine besylate]", "HCT116-GFP viability": 94.9},
      {"smiles": "NC(=O)N/N=C/c1ccc([N+](=O)[O-])o1", "note": "[Nitrofural]", "HCT116-GFP viability": 81.8},
      {"smiles": "CCCC(=O)Nc1ncnc2c1ncn2[C@@H]1O[C@@H]2COP(=O)(O)O[C@H]2[C@H]1OC(=O)CCC", "note": "[Bucladesine sodium salt]", "HCT116-GFP viability": 88.2},
      {"smiles": "CN(C)CCC[C@@]1(c2ccc(F)cc2)OCc2cc(C#N)ccc21", "note": "[Escitalopram oxalate]", "HCT116-GFP viability": 95},
      {"smiles": "CN1CCCC(n2nc(Cc3ccc(Cl)cc3)c3ccccc3c2=O)CC1", "note": "(centres undefined) [Azelastine hydrochloride]", "HCT116-GFP viability": 78.5},
      {"smiles": "CCN1CCN(C(=O)N[C@@H](C(=O)N[C@@H]2C(=O)N3[C@@H]2SC(C)(C)[C@@H]3C(=O)O)c2ccccc2)C(=O)C1=O", "note": "[Piperacillin sodium salt]", "HCT116-GFP viability": 99.4},
      {"smiles": "CO[C@@H]1[C@@H](OC(N)=O)[C@@H](O)[C@H](Oc2ccc3c(O)c(NC(=O)c4ccc(O)c(CC=C(C)C)c4)c(=O)oc3c2C)OC1(C)C", "note": "[Novobiocin sodium salt]", "HCT116-GFP viability": 97.1},
      {"smiles": "N=C(N)NCC1COC2(CCCCC2)O1", "note": "(centres undefined) [Guanadrel sulfate]", "HCT116-GFP viability": 103},
      {"smiles": "CC1(C)OC(=O)NC1=O", "note": "[Dimethadione]", "HCT116-GFP viability": 96.7},
      {"smiles": "Nc1ccc(C(=O)NCC(=O)O)cc1", "note": "[Aminohippuric acid]", "HCT116-GFP viability": 108}
    ]}
  ]
}
